Test results from paper PMC10668032.
This is one part of the list. At the low end of the ranking the order means little.

What follows are sequences tested against SIX1 homeodomain (reference allele) (UniProt Q15475) (assay: universal protein binding microarray). Settings: Universal all-10-mer PBM (8x60K, AMADID 030236), 300 nM GST-tagged protein, Alexa Fluor 488 anti-GST; buffer, salt, pH and temperature not stated; high values mean tight binding; most listed sequences are background and not binding sites; double strand, one strand shown.

Row | Sequence | binding signal
1 | CACAGCTG | -0.0844 E-score
2 | CCCAAATA | -0.0212 E-score
3 | CTTCCGTC | -0.151 E-score
4 | GCGCTCCC | -0.0596 E-score
5 | AGCCCGGC | -0.116 E-score
6 | CTCTCCGA | 0.0387 E-score
7 | CAAGGTAA | -0.0994 E-score
8 | ACTCATGA | 0.0933 E-score
9 | ATGCTGCA | -0.164 E-score
10 | ACGAATCA | -0.0422 E-score
11 | GCAAAGAC | -0.283 E-score
12 | GACCTATA | 0.0813 E-score
13 | CCGCGGAA | -0.05 E-score
14 | CGTGGGGC | -0.0255 E-score
15 | GCGAAGAC | -0.175 E-score
16 | ACGAGTTC | -0.125 E-score
17 | GGTGCGAA | -0.0168 E-score
18 | CAAGGGAA | -0.151 E-score
19 | GCTAGGCA | -0.21 E-score
20 | GTTCCCAA | -0.0489 E-score
21 | GTAAGTGA | 0.149 E-score
22 | CATTGGCG | -0.197 E-score

Row | Sequence | binding signal
23 | ATCAGCCG | 0.131 E-score
24 | CGCTTCGA | -0.0359 E-score
25 | ACCTAAGT | -0.00969 E-score
26 | ACGGACTA | -0.0194 E-score
27 | ACCCTCAC | -0.0323 E-score
28 | AATACCGT | 0.318 E-score
29 | GTTCTATA | 0.139 E-score
30 | GGCGCCAA | -0.241 E-score
31 | AATGTTTA | -0.215 E-score
32 | AAATACCC | 0.2 E-score
33 | AGAAGCTC | -0.125 E-score
34 | CGTGCGGA | -0.0228 E-score
35 | GCATGGAA | -0.218 E-score
36 | AAACTTTA | -0.0735 E-score
37 | CTTATTAA | -0.099 E-score
38 | AGGAGAAC | -0.0661 E-score
39 | AAACCTTC | -0.0706 E-score
40 | AATTGGAT | 0.245 E-score
41 | GGACGACC | -0.126 E-score
42 | CCGCTGTA | -0.018 E-score
43 | GGTAGTAC | -0.0291 E-score
44 | AAAAGGGA | -0.0765 E-score

Row | Sequence | binding signal
45 | AAGGGCAA | -0.113 E-score
46 | CCCAGCAA | -0.0549 E-score
47 | ATGTCCTA | 0.01 E-score
48 | AATTGCAT | -0.171 E-score
49 | TATCATCA | 0.412 E-score
50 | CAGTACTG | -0.17 E-score
51 | ACAAGTTA | -0.0731 E-score
52 | AAGATATT | 0.214 E-score
53 | GGACGGAC | -0.171 E-score
54 | GATGGGCC | -0.169 E-score
55 | CTAATAAC | -0.0636 E-score
56 | CCCTGCGA | 0.0553 E-score
57 | GTTCACAA | -0.167 E-score
58 | ACCCTAAT | -0.0309 E-score
59 | ATACCTAA | 0.273 E-score
60 | AGAGAAAG | -0.109 E-score
61 | AAAAACCG | 0.0268 E-score
62 | GCTGGTAC | -0.0625 E-score
63 | GATAGTCC | 0.24 E-score
64 | GACGAAGA | -0.0867 E-score
65 | CCATGGCG | 0.137 E-score
66 | CCGAGTGC | 0.0163 E-score

Row | Sequence | binding signal
67 | ACCGATAG | 0.352 E-score
68 | ACCGATCT | 0.251 E-score
69 | AGCGCTAC | -0.205 E-score
70 | CTATTGTC | -0.201 E-score
71 | CGAGTTGA | -0.0799 E-score
72 | ACTATTGA | 0.061 E-score
73 | GGTCAAAC | -0.287 E-score
74 | ATTTTAAC | -0.2 E-score
75 | CTTATCAA | 0.0875 E-score
76 | CCGTACTC | -0.128 E-score
77 | CAAGGATG | -0.0235 E-score
78 | GGTAACTA | 0.159 E-score
79 | ACAGCGGG | -0.149 E-score
80 | GCGAGCAC | -0.111 E-score
81 | AAGGCTTC | -0.115 E-score
82 | AAACGTCT | -0.0863 E-score
83 | AGCTCCGC | -0.0815 E-score
84 | GATATCCC | 0.487 E-score
85 | CGTCCGTC | -0.272 E-score
86 | ATAACGAC | 0.0188 E-score
87 | ACTCTCAT | 0.0192 E-score
88 | ATTTCGAC | -0.32 E-score

Row | Sequence | binding signal
89 | CCAGCGTA | -0.0796 E-score
90 | AACTGCAA | -0.232 E-score
91 | CTTCCCGC | -0.135 E-score
92 | AGGATTTG | -0.0657 E-score
93 | ACCCAACC | 0.0305 E-score
94 | CTATGGGC | -0.218 E-score
95 | AATGCTAC | 0.0507 E-score
96 | AGCCCTGG | -0.101 E-score
97 | ATTTCTGG | -0.172 E-score
98 | AAGAAGCC | -0.0753 E-score
99 | CTGAGGTA | 0.0822 E-score
100 | CCTTCCTA | -0.153 E-score
101 | ATAGAGGA | 0.153 E-score
102 | ATCTGCGA | 0.175 E-score
103 | CACGGCGA | -0.0142 E-score
104 | CAGCGGGC | -0.188 E-score
105 | TCGCAGCA | -0.0755 E-score
106 | AACTTTAA | -0.131 E-score
107 | CCCATGAG | 0.0671 E-score
108 | CGAGGGGA | 0.164 E-score
109 | TCTAGACA | 0.065 E-score
